Article PMC3591284
No constants are given. Whether binding was seen depends on the method and setting. Binding seen in cells or lysates may run through a third protein. Some binding calls cover weakened binding; strength is not graded here. For part of these data: Sequences can lack the tags named with a protein.

Protein sequences, listed by entry. Tags and fused reporters are not part of them.
UniProt Q99873: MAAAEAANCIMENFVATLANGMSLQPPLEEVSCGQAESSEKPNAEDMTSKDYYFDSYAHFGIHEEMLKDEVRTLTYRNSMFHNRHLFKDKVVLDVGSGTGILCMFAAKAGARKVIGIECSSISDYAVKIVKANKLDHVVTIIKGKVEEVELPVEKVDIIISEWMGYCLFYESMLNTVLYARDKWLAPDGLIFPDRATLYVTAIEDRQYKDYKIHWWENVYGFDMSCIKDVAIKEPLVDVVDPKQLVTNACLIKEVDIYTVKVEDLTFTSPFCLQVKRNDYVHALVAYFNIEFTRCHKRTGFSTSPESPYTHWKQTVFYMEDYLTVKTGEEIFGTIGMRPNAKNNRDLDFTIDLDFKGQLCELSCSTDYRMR
UniProt O60678: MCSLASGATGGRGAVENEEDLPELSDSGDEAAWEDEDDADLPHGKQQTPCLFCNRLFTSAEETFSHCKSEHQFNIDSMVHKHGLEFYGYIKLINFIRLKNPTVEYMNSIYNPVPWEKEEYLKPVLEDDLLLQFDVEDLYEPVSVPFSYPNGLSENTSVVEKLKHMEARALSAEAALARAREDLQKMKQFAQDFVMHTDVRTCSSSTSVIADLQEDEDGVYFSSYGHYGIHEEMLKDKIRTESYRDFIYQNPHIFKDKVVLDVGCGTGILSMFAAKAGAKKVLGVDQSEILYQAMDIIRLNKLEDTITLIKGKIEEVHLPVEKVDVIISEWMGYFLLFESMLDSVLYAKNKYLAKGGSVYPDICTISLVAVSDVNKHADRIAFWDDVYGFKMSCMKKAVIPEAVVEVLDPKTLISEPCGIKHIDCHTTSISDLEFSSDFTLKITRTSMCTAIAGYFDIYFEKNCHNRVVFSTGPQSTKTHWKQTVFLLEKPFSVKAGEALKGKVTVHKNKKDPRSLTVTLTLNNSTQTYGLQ
UniProt Q96LA8: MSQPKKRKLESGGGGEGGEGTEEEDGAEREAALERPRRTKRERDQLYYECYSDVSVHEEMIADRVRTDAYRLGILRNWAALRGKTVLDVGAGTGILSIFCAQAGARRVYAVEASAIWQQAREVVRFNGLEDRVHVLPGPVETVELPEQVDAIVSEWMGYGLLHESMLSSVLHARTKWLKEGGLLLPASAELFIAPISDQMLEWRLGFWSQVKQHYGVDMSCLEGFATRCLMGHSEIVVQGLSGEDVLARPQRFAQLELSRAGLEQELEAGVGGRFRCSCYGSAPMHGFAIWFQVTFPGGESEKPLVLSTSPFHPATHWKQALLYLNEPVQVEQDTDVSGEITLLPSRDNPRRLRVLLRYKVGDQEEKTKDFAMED
UniProt Q12873: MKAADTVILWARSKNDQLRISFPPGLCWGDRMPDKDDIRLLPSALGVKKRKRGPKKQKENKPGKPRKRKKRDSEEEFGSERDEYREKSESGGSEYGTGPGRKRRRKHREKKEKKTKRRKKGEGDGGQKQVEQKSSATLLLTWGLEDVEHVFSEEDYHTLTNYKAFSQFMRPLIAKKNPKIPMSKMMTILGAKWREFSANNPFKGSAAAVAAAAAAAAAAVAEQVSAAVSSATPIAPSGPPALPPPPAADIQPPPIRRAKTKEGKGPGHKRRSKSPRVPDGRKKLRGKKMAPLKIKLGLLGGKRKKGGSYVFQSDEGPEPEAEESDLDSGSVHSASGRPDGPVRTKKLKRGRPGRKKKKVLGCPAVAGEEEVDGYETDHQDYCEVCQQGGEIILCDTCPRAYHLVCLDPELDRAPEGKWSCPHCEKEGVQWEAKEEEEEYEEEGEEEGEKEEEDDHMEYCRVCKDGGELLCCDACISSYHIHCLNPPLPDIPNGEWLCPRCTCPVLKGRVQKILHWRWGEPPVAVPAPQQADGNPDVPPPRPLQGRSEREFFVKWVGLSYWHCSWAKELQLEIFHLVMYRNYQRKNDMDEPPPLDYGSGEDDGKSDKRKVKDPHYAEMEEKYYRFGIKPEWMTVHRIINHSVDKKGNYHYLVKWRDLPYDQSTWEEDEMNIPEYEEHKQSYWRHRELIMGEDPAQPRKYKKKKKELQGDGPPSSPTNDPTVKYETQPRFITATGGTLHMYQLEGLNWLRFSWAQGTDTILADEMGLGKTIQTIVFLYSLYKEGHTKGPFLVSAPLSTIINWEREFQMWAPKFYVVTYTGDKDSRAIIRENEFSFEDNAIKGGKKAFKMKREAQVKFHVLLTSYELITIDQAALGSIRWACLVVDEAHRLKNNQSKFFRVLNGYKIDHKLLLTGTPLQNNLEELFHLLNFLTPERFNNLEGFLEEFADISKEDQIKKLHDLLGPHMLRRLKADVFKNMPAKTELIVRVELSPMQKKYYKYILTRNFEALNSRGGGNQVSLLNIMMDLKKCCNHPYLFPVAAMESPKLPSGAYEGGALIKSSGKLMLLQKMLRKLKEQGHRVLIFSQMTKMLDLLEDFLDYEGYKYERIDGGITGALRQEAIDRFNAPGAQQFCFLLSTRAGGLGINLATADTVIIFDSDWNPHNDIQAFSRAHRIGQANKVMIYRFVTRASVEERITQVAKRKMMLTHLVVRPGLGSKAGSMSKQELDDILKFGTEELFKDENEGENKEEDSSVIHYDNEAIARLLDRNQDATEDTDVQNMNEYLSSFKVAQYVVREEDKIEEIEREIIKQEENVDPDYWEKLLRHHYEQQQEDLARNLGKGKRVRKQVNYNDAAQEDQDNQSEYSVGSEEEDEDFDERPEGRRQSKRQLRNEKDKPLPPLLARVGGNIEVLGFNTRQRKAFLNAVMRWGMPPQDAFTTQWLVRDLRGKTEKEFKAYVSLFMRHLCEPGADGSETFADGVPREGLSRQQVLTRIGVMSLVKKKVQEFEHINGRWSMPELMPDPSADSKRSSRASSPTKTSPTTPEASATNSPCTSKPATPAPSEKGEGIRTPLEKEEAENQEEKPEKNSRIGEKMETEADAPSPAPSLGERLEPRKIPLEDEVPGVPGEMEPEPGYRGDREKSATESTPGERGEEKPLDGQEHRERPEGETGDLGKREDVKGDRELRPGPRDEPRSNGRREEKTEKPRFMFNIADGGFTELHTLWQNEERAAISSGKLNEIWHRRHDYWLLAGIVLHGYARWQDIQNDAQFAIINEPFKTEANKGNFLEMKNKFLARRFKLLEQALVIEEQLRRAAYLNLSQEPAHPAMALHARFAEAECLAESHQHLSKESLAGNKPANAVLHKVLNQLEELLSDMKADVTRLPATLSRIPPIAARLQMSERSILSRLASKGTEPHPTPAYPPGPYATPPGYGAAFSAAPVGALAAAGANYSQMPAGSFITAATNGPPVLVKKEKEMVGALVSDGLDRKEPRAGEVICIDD
UniProt Q14839: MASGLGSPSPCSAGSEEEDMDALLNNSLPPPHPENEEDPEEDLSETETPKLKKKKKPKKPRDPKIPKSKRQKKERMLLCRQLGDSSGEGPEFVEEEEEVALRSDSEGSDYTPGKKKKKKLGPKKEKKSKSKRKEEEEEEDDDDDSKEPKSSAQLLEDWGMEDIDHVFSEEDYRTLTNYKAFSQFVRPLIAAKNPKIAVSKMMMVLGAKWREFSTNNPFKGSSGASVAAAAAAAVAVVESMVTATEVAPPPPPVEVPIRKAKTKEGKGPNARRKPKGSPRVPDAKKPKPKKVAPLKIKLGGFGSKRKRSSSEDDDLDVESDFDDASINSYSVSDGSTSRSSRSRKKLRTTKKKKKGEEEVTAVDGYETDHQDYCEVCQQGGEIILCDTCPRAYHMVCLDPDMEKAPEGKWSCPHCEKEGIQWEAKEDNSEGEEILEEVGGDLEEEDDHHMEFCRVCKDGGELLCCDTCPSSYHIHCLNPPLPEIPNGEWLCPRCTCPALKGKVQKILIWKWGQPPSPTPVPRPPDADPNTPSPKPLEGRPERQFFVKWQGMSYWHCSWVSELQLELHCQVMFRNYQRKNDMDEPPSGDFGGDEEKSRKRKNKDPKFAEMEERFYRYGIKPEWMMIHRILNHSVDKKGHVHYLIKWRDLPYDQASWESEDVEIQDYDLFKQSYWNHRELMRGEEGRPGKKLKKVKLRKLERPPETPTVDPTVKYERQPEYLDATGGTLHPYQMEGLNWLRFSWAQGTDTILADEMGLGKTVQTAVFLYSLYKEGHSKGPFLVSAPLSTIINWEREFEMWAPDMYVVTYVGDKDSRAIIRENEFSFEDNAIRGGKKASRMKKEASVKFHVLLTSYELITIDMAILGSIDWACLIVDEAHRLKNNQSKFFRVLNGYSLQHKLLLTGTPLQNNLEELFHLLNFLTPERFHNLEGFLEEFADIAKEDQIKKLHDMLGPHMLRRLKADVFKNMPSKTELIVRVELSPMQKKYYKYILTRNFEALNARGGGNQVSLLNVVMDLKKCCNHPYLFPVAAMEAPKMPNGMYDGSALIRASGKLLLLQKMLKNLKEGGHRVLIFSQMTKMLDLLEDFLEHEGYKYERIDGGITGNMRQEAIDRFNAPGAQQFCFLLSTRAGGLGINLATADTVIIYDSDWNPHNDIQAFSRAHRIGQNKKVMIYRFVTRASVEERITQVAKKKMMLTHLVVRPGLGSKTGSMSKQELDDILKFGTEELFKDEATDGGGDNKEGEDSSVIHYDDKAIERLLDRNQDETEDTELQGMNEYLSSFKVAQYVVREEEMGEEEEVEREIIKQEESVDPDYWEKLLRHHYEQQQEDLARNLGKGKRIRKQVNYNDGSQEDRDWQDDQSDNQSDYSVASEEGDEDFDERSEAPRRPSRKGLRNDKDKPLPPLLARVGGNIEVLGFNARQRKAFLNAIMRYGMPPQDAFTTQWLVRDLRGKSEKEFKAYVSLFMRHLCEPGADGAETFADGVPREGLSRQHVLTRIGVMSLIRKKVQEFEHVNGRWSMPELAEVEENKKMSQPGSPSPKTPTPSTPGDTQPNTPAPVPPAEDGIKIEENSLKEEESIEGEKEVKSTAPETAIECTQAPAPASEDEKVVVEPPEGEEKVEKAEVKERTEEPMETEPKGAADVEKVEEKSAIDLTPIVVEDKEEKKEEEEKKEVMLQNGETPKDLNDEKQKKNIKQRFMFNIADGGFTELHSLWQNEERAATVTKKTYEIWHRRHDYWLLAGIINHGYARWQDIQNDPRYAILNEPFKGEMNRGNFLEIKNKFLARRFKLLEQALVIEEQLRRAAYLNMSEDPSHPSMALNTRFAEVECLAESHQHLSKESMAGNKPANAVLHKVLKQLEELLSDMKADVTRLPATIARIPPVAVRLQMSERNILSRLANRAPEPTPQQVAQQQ
UniProt Q13547: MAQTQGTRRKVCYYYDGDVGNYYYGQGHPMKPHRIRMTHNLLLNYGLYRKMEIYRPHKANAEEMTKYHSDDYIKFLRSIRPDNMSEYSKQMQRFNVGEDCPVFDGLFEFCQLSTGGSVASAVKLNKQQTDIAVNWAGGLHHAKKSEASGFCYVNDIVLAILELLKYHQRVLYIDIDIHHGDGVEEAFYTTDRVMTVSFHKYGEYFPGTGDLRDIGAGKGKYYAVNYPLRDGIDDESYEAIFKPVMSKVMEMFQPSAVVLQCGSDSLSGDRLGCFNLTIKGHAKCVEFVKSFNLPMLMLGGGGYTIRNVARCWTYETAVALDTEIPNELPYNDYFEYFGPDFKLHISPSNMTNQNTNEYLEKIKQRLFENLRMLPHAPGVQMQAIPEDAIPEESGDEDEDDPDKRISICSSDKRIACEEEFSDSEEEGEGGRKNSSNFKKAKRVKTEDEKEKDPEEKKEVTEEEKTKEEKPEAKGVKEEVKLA
UniProt P10242: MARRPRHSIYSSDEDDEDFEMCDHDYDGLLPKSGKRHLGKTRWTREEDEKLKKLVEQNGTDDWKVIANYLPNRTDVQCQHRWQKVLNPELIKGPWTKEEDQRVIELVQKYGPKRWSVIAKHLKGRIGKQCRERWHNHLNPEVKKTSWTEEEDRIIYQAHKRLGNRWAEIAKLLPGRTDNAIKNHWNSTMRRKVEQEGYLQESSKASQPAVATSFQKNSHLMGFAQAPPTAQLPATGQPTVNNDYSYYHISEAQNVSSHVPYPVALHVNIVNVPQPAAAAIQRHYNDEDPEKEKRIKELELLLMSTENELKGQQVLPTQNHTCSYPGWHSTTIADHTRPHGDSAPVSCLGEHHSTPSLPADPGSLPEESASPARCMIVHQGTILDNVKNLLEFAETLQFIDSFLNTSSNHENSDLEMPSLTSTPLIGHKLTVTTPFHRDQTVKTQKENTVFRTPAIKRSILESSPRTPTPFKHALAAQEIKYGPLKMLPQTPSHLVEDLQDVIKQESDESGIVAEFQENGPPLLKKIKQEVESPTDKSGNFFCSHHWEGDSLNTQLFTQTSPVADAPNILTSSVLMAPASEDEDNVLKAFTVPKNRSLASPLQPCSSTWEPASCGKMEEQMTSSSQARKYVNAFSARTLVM

Assays:
GST-PRMT1 = GST-PRMT1 (UniProt Q99873); test: pull-down; GST and GST-PRMT1, -3, -4, -6 on glutathione beads incubated with 250 µg extract of Flag-Mi2α-overexpressing HEK293 cells; anti-Flag Western blot; only the target purified
GST-PRMT3 = GST-PRMT3 (UniProt O60678); test: as above
GST-PRMT4 = biological target: T1, GST-PRMT4 (UniProt Q86X55); test: as above
T1 sequence: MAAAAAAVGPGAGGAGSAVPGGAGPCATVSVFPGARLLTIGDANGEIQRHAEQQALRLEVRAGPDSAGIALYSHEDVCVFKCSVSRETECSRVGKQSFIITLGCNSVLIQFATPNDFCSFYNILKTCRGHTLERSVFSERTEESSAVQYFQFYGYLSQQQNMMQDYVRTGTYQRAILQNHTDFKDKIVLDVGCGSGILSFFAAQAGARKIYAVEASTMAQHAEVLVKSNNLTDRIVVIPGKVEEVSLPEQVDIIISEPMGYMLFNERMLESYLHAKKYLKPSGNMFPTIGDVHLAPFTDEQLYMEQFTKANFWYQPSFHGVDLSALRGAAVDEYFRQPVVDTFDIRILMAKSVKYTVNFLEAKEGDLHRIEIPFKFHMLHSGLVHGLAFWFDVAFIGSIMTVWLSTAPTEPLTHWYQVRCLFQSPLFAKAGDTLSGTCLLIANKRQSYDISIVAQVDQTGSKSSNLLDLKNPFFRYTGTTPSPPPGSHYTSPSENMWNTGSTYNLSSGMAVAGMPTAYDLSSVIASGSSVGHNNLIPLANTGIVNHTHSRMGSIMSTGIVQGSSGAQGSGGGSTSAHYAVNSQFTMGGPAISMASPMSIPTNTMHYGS

GST-PRMT6 = GST-PRMT6 (UniProt Q96LA8); test: as above
[1] = biological target: T2, Protein arginine methyltransferase 4 (PRMT4), endogenous in HEK293 cells (human (endogenous in HEK293)) (UniProt Q86X55); test: co-IP; transfected HEK293 cells, whole-cell extracts in IPH buffer (50 mM Tris pH 8, 150 mM NaCl, 5 mM EDTA, 0.5% NP40, 1 mM DTT), Benzonase-treated, 10 µg/ml ethidium bromide; isotype control IgG in parallel; Western blot
T2 sequence: T1 sequence

[2] = biological target: Flag-tagged Mi2α, overexpressed in HeLa cells (UniProt Q12873); test: co-IP; HeLa cells transfected with Flag-Mi2α or empty vector; IP with anti-PRMT4, anti-Flag or isotype control IgG; Western blot with anti-MBD3, anti-HDAC1 and anti-Flag
[3] = biological target: Mi2α, endogenous in Jurkat cells (human (endogenous in Jurkat)) (UniProt Q12873); test: co-IP; endogenous proteins, Jurkat cell extract incubated with anti-PRMT4 or anti-Mi2α or control IgG; Western blot
[4] = biological target: T3, PRMT4, endogenous in Jurkat cells (human (endogenous in Jurkat)) (UniProt Q86X55); test: as above
T3 sequence: T1 sequence

For “Flag-tagged Mi2α, overexpressed in HEK293 cells (from UniProt Q12873 1-2000) (enzyme)”, the binding (GST-PRMT1) was “binds”, the binding (GST-PRMT3) was “no binding” and the binding (GST-PRMT4) was “binds”. The binding (GST-PRMT6) was “no binding” and the binding [1] was “binds”.
For “HA-tagged Mi2β, overexpressed in HEK293 cells (from UniProt Q14839 1-1912) (enzyme)”, the binding [1] was “binds”.
In the case of “HDAC1, endogenous in HeLa cells (from UniProt Q13547 1-482) (enzyme)”, the binding [2] is reported as “binds”.
For “c-Myb, endogenous in Jurkat cells (from UniProt P10242 1-640)”, the binding [3] was “binds” and the binding [4] was “binds”.
